Assay results taken from publication PMC12820563, “FoxP3 forms a head-to-head dimer in vivo and stabilizes its multimerization on adjacent microsatellites”.
This is one part of the list.

These sequences were tested against T1, MBP-FoxP1dN (Mus musculus, UniProt P58462 326-579) (assay: PD-seq (MBP pull-down with sequencing); 20 mM Tris-HCl pH 7.5, 100 mM NaCl, 1.5 mM MgCl2, 0.4 uM protein, 0.1 uM dsDNA library, 30 min, room temperature, amylose pull-down; high values mean tight binding). Details: protein: recombinant; tags: His6-MBP; chain copies: 2; dsDNA, one strand shown.
T1 sequence: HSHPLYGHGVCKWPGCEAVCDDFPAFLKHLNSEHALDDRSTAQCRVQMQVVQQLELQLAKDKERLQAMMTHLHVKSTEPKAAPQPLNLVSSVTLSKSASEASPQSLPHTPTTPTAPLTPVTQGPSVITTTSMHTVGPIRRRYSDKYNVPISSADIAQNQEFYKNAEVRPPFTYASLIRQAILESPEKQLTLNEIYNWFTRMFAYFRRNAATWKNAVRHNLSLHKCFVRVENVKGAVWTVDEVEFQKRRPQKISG
Procedure, shortened: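 Binding is given as reads-per-million enrichment, pull-down over input, with replicates pooled. The bait was an N-terminus-lacking mouse FoxP3 or FoxP1 fragment with a His6-MBP tag, expressed in E. coli and used at 0.4 µM with 0.1 µM Klenow-filled degenerate double-stranded DNA library for 30 min at room temperature in Tris pH 7.5 buffer with NaCl and MgCl2. Amylose resin pull-down with three washes was followed by proteinase K release, PCR barcoding and Illumina sequencing.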

Sequence | binding signal
GATGATTGTTCTCCCAGCTGATGAATTATTAAGCTCGAGTAAACAAATTTTCCTAATCTTTCTGTTCAAGCGCCATCTAC | 1.04 RPM ratio (pull-down/input)
GATGATTGTTCTCCCAGCTGATGAATTAACCAGTTCGAGTAAACAAATTTTCCTAATCTTTCTGTTCAAGCGCCATCTAC | 0.785 RPM ratio (pull-down/input)
GATGATTGTTCTCCCAGCTGATGAATTGGGCAGCTCGAGTAAACAAATTTTCCTAATCTTTCTGTTCAAGCGCCATCTAC | 0.792 RPM ratio (pull-down/input)
GATGATTGTTCTCCCAGCTGATGAATTTCGAAAGTCGAGTAAACAAATTTTCCTAATCTTTCTGTTCAAGCGCCATCTAC | 0.883 RPM ratio (pull-down/input)
GATGATTGTTCTCCCAGCTGATGAATTCCTACTATCGAGTAAACAAATTTTCCTAATCTTTCTGTTCAAGCGCCATCTAC | 0.879 RPM ratio (pull-down/input)
GATGATTGTTCTCCCAGCTGATGAATTTTTGCTTTCGAGTAAACAAATTTTCCTAATCTTTCTGTTCAAGCGCCATCTAC | 1.83 RPM ratio (pull-down/input)
GATGATTGTTCTCCCAGCTGATGAATTTATGATCTCGAGTAAACAAATTTTCCTAATCTTTCTGTTCAAGCGCCATCTAC | 1.06 RPM ratio (pull-down/input)
GATGATTGTTCTCCCAGCTGATGAATTAGCGTCTTCGAGTAAACAAATTTTCCTAATCTTTCTGTTCAAGCGCCATCTAC | 1.01 RPM ratio (pull-down/input)
GATGATTGTTCTCCCAGCTGATGAATTTCGCTCTTCGAGTAAACAAATTTTCCTAATCTTTCTGTTCAAGCGCCATCTAC | 0.79 RPM ratio (pull-down/input)
GATGATTGTTCTCCCAGCTGATGAATTCTCCTACTCGAGTAAACAAATTTTCCTAATCTTTCTGTTCAAGCGCCATCTAC | 0.814 RPM ratio (pull-down/input)
GATGATTGTTCTCCCAGCTGATGAATTGGCGAGATCGAGTAAACAAATTTTCCTAATCTTTCTGTTCAAGCGCCATCTAC | 0.825 RPM ratio (pull-down/input)
GATGATTGTTCTCCCAGCTGATGAATTCGTCCCGTCGAGTAAACAAATTTTCCTAATCTTTCTGTTCAAGCGCCATCTAC | 0.814 RPM ratio (pull-down/input)
GATGATTGTTCTCCCAGCTGATGAATTCGTTAGATCGAGTAAACAAATTTTCCTAATCTTTCTGTTCAAGCGCCATCTAC | 0.907 RPM ratio (pull-down/input)
GATGATTGTTCTCCCAGCTGATGAATTCTCGTTCTCGAGTAAACAAATTTTCCTAATCTTTCTGTTCAAGCGCCATCTAC | 0.882 RPM ratio (pull-down/input)
GATGATTGTTCTCCCAGCTGATGAATTATTCGGATCGAGTAAACAAATTTTCCTAATCTTTCTGTTCAAGCGCCATCTAC | 0.941 RPM ratio (pull-down/input)
GATGATTGTTCTCCCAGCTGATGAATTATGAGTGTCGAGTAAACAAATTTTCCTAATCTTTCTGTTCAAGCGCCATCTAC | 1 RPM ratio (pull-down/input)

Sequence | binding signal
GATGATTGTTCTCCCAGCTGATGAATTGGCCGGTTCGAGTAAACAAATTTTCCTAATCTTTCTGTTCAAGCGCCATCTAC | 0.774 RPM ratio (pull-down/input)
GATGATTGTTCTCCCAGCTGATGAATTTCAACAATCGAGTAAACAAATTTTCCTAATCTTTCTGTTCAAGCGCCATCTAC | 1.36 RPM ratio (pull-down/input)
GATGATTGTTCTCCCAGCTGATGAATTTGTCGATTCGAGTAAACAAATTTTCCTAATCTTTCTGTTCAAGCGCCATCTAC | 1.02 RPM ratio (pull-down/input)
GATGATTGTTCTCCCAGCTGATGAATTGATTCTGTCGAGTAAACAAATTTTCCTAATCTTTCTGTTCAAGCGCCATCTAC | 1.04 RPM ratio (pull-down/input)
GATGATTGTTCTCCCAGCTGATGAATTTCCATCATCGAGTAAACAAATTTTCCTAATCTTTCTGTTCAAGCGCCATCTAC | 0.964 RPM ratio (pull-down/input)
GATGATTGTTCTCCCAGCTGATGAATTCGTACTATCGAGTAAACAAATTTTCCTAATCTTTCTGTTCAAGCGCCATCTAC | 0.985 RPM ratio (pull-down/input)
GATGATTGTTCTCCCAGCTGATGAATTCTCCCGGTCGAGTAAACAAATTTTCCTAATCTTTCTGTTCAAGCGCCATCTAC | 0.773 RPM ratio (pull-down/input)
GATGATTGTTCTCCCAGCTGATGAATTAAAATACTCGAGTAAACAAATTTTCCTAATCTTTCTGTTCAAGCGCCATCTAC | 1.11 RPM ratio (pull-down/input)
GATGATTGTTCTCCCAGCTGATGAATTCGCTAATTCGAGTAAACAAATTTTCCTAATCTTTCTGTTCAAGCGCCATCTAC | 0.905 RPM ratio (pull-down/input)
GATGATTGTTCTCCCAGCTGATGAATTGTACTGGTCGAGTAAACAAATTTTCCTAATCTTTCTGTTCAAGCGCCATCTAC | 0.846 RPM ratio (pull-down/input)
GATGATTGTTCTCCCAGCTGATGAATTTGTTGCCTCGAGTAAACAAATTTTCCTAATCTTTCTGTTCAAGCGCCATCTAC | 1.55 RPM ratio (pull-down/input)
GATGATTGTTCTCCCAGCTGATGAATTATTATGTTCGAGTAAACAAATTTTCCTAATCTTTCTGTTCAAGCGCCATCTAC | 1.69 RPM ratio (pull-down/input)
GATGATTGTTCTCCCAGCTGATGAATTTCTGTTCTCGAGTAAACAAATTTTCCTAATCTTTCTGTTCAAGCGCCATCTAC | 0.903 RPM ratio (pull-down/input)
GATGATTGTTCTCCCAGCTGATGAATTGTATATCTCGAGTAAACAAATTTTCCTAATCTTTCTGTTCAAGCGCCATCTAC | 1.36 RPM ratio (pull-down/input)
GATGATTGTTCTCCCAGCTGATGAATTCAGGTTATCGAGTAAACAAATTTTCCTAATCTTTCTGTTCAAGCGCCATCTAC | 0.998 RPM ratio (pull-down/input)
GATGATTGTTCTCCCAGCTGATGAATTCATCTACTCGAGTAAACAAATTTTCCTAATCTTTCTGTTCAAGCGCCATCTAC | 0.93 RPM ratio (pull-down/input)
